{"source": "patent US20190330336A1", "about": "(SUTRO BIOPHARMA, published 2019)", "binders": {"B1": {"name": "SRP1449-B07 (scFv)", "scFv-Fc": "QVQLVESGGGVVQPGRSLRLSCAASGFTFSSYGMHWVRQAPGKGLEWVAVIWYDGSNKYYADSVKGRFTISRDNSKNTLYLQMNSLRAEDTAVYYCAREWAVSSWDYGMDVWGQGTTVTVSSGGGGSGGGGSGGGGS[about 100 residues cut from this listing]FTFGPGTKVDIKAAGSDQ[human IgG1 Fc with changes cut from this listing]"}, "B2": {"name": "SRP1449-B03 (scFv)", "scFv-Fc": "QVQLVESGGGVVQPGRSLRLSCAASGFTFSSYGMHWVRQAPGKGLEWVAAIWYDASYKYYADSVKGRFTISRDNSKNTLYLQMNSLRAEDTAVYYCAREWAVASWDYALDVWGQGTTVTVSSGGGGSGGGGSGGGGSEIVLTQSPGTMSLSPGERATLSCRASQSVSSSYLAWYQQKPGQAPRLLIYGASSRATGIPDRFSGSGSGTDFTLTISRLEPEDFAVYYCQQYDRSPLTFGPGTKVDIKAAGSDQ[human IgG1 Fc with changes cut from this listing]"}, "B3": {"name": "SRP1449-D05 (scFv)", "scFv-Fc": "QVQLVESGGGVVQPGRSLRLSCAASGFTFRSFGMHWVRQAPGKGLEWVAVIWYDGSVKYYADSVKGRFTISRDNSKNTLYLQMNSLRAEDTAVYYCAREWADVSWDAGLDVWGQGTTVTVSSGGGGSGGGGSGGGGS[about 100 residues cut from this listing]KFGPGTKVDIKAAGSDQ[human IgG1 Fc with changes cut from this listing]"}, "B4": {"name": "SRP1449-F01 (scFv)", "scFv-Fc": "QVQLVESGGGVVQPGRSLRLSCAASGFTFSSYGMHWVRQAPGKGLEWVAVIWYDGSYKYYADSVKGRFAISRDNSKNTLYLQMNSLRAEDTAVYYCARESEVASWDYGLDVWGQGTTVTVSSGGGGSGGGGSGGGGS[about 100 residues cut from this listing]FGPGTKVDIKAAGSDQ[human IgG1 Fc with changes cut from this listing]"}, "B5": {"name": "SRP1449-G09.2 (scFv)", "scFv-Fc": "QVQLVESGGGVVQPGRSLRLSCAASGFTFSSYGMHWVRQAPGKGLEWVAVIWYDGSYKYYADSVKGRFTISRDNSKNTLYLQMNSLRAEDTAVYYCAREEAPENWDYALDVWGQGTTVTVSSGGGGSGGGGSGGGGS[about 100 residues cut from this listing]SFGPGTKVDIKAAGSDQ[human IgG1 Fc with changes cut from this listing]"}}, "key": {"[1]": {"target": "T1, human LAG3 expressed on the cell surface of CHO or HEK293T cells (human, UniProt P18627 23-525)", "T1 construct": "also called CHO-LAG3; 293T-LAG3", "T1 sequence": "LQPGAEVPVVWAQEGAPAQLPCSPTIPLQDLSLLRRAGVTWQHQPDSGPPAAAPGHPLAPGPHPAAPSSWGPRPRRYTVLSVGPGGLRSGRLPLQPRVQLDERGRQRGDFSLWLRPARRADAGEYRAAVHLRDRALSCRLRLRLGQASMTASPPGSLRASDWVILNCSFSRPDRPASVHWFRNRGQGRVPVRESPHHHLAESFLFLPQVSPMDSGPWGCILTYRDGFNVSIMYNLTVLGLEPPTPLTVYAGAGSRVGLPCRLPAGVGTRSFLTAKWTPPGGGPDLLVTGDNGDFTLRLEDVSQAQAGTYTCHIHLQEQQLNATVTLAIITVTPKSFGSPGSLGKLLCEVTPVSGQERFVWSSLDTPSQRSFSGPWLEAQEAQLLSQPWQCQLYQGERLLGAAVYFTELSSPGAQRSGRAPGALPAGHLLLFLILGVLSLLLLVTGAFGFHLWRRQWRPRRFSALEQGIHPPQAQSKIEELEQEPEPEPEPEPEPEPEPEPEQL", "assay": "flow cytometry on CHO cells expressing human LAG3", "experimental": "Antibody variants were tested in a fluorescence-activated cell sorting (FACS) cell-binding assay. Chinese Hamster Ovary (CHO) cells or HEK293T cells stably expressing the human target molecule LAG3 on the cell surface (CHO-LAG3, 293T-LAG3) were used to screen for cell binders by flow cytometry. Parental CHO or 293T cells were used as a negative control to determine background-binding levels. Cells were cultured in RPMI with 10% FCS Penicillin/Streptomycin (or Pen/Strep) and glutamine (or Gln) and split every 3-4 days at 10⁵ cells/ml.\nA mix of parental CHO cells and CHO-LAG3 cells (or 293T and 293T-LAG3 cells) was prepared as follows: Parental CHO cells were washed 2× in PBS then incubated in PBS containing 1 nM CellTrace™ Oregon Green488® (Life Technologies) at 37° C. for 30 minutes. […] Parental CHO cells and CHO-LAG3 cells were then mixed to obtain a 1:1 cell suspension and seeded at 100 μl per well on 96 well polypropylene plates. Plates were spun at 1500 rpm for 5 minutes and cell pellets were suspended in 50 μl FACS buffer containing 6-12 point dilutions of anti-LAG3 variants starting from concentrations of ˜100-200 nM antibody, dispensed using BioMekFX (Beckman Coulter). Cells were then incubated on ice for 1 hr, washed with FACS buffer and incubated for 1 hr on ice with 50 μl FACS buffer containing 2.5 μg/ml R-Phycoerythrin-conjugated Goat Anti-Human IgG (Jackson ImmunoResearch) or AF647-conjugated Goat Anti-mouse IgG (Life Technologies) dispensed using BioMekFX (Beckman Coulter). Cells were then washed 2× with FACS buffer and fixed for 10 minutes in 200 μl PBS with 2% PFA prior to fluorescence detection. Samples were acquired using a Beckton Dickinson LSRII FACS. Mean Fluorescence Intensity of LAG3 antibody binding was analyzed using Tree Star, Inc. FlowJo® software."}, "[2]": {"target": "T2, HIS-tagged (ACRO) or biotinylated recombinant human LAG3 protein (human, UniProt P18627 23-450, HIS tag or biotin, position not stated)", "T2 construct": "Soluble bought protein; also called rhLAG3", "T2 sequence": "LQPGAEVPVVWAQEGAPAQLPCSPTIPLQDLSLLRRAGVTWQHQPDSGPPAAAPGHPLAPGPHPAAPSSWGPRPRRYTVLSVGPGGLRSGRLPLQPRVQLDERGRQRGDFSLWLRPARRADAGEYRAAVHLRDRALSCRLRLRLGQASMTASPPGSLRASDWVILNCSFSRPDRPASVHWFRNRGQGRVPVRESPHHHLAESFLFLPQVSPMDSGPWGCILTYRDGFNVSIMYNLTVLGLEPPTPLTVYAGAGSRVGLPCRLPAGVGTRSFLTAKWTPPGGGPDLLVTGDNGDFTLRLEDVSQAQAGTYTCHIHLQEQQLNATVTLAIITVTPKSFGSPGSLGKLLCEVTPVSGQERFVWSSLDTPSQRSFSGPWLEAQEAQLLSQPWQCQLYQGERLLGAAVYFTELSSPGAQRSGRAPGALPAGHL", "assay": "FACS competition: antibody inhibits rhLAG3 binding to MHCII on DAUDI cells", "experimental": "DAUDI cells express high levels of Major Histocompatibility Class II (MHCII) molecules, a natural ligand for LAG3, on the cell surface. DAUDI cells were used to screen for antibodies that inhibit binding of HIS-tagged (ACRO) or biotinylated recombinant human LAG3 protein (rhLAG3) to MHCII expressed on the cell surface.\nDAUDI cells were cultured in RPMI w/10% FCS Pen/Strep and Gln and split every 3-4 days at 10^5 cells/ml. Cells were washed 2× with FACS buffer (PBS w/2% FCS), […] at a final concentration of 1×10⁶ cells/ml and seeded at 100 μl per well on 96 well polypropylene plates. Plates were spun at 1500 rpm for 5 minutes and cell pellets were suspended in 50 μl FACS buffer containing 8 point 1:3 dilutions (2× concentrated) of anti-LAG3 antibody variants, starting from high concentration of ˜600 nM. 50 μl FACS buffer containing 10-20 μg/ml of the HIS-tagged rhLAG3 protein or 40 μg/ml of the biotinylated rhLAG3 protein were then added to the cells. Cell were then incubated in ice for 1 hr, washed with FACS buffer and incubated for 1 hr in ice with 50 μl FACS buffer containing 2 μg/ml R-Phycoerythrin-conjugated Streptavidin (eBiosciences) or 1 μg/ml R-Phycoerythrin-conjugated anti-HIS IgG (Abcam). Cell were washed 2× with FACS buffer and fixed for 10 minutes in 200 μl PBS w/2% PFA prior to acquisition."}, "[3]": {"target": "T3, human LAG3-Fc, R&D Systems #2319-L3 (human, UniProt P18627 23-450)", "T3 construct": "Bought protein; also called Human LAG3 (Biacore); not shown: human Fc of the bought fusion protein", "T3 sequence": "T2 sequence", "assay": "SPR (Biacore), antibody captured on anti-Flag chip, human LAG3-Fc analyte, 25 C, 1:1 fit", "experimental": "Anti-Flag M2 IgG (Sigma-Aldrich # F9291) was immobilized onto a CMS chip (GE Life Sciences) using amine coupling chemistry (from Amine Coupling Kit, GE Life Sciences). The immobilization steps were carried out at a flow rate of 25 μL/min in 1×HBS-EP+ buffer (GE Life Sciences; 10× Stock diluted before use). The sensor surfaces were activated for 7 min with a mixture of NHS (0.05 M) and EDC (0.2 M). The Anti-Flag M2 IgG was injected over all 4 flow cells at a concentration of 25 μg/mL in 10 mM sodium acetate, pH 4.5, for 7 min. Ethanolamine (1 M, pH 8.5) was injected for 7 min to block any remaining activated groups. An average of 12,000 response units (RU) of capture antibody was immobilized on each flow cell.\nOff-rate and Kinetic binding experiments were performed at 25° C. using 1×HBS-EP+ buffer. Test and control antibodies were injected over the Anti-Flag surface at concentrations of 5-10 μg/mL for 12 seconds at a flow rate of 10 μL/min on flow cells 2, 3 and 4, followed by a buffer wash for 30 seconds at the same flow rate. Kinetic characterization of antibody samples was carried out with a single concentration of antigen (for off-rate ranking) or a dilution series of antigen (for kinetic characterization) and 1 injection of 0 nM antigen. After capturing ligand (antibody) on the anti-Flag surface, the analyte (human LAG3-Fc, R&D Systems #2319-L3; or cynomolgus LAG3-Fc, accession #NC_022282.1) was bound at 50, 25, 12.5, 6.25, and 0 nM for 180 seconds, followed by a 600 second dissociation phase at a flow rate of 50 μl/min. Between each ligand capture and analyte binding cycle, regeneration was carried out using 2 injections of 10 mM glycine pH 2.0 for 30 seconds at 30 μL/min, followed by a 30 second buffer wash step.\nThe data were fit with the Biacore T200 Evaluation software, using a 1:1 Langmuir binding model. KD (affinity, nM) was determined as a ratio of the kinetic rate constants calculated from the fits of the association and dissociation phases."}}}
{"binder": "B1", "values": [{"measurement": "Kd", "setting": "[1]", "value": 1.06, "unit": "nM"}, {"measurement": "IC50", "setting": "[2]", "value": 1.2, "unit": "nM"}, {"measurement": "Kd", "setting": "[3]", "value": 0.676, "unit": "nM"}, {"measurement": "koff", "setting": "[3]", "value": 0.000536, "unit": "s⁻¹"}, {"measurement": "kon", "setting": "[3]", "value": 794000, "unit": "M⁻¹ s⁻¹"}]}
{"binder": "B2", "values": [{"measurement": "Kd", "setting": "[1]", "value": 1.92, "unit": "nM"}, {"measurement": "IC50", "setting": "[2]", "value": 1, "unit": "nM"}, {"measurement": "Kd", "setting": "[3]", "value": 0.64, "unit": "nM"}, {"measurement": "koff", "setting": "[3]", "value": 0.000302, "unit": "s⁻¹"}, {"measurement": "kon", "setting": "[3]", "value": 472000, "unit": "M⁻¹ s⁻¹"}]}
{"binder": "B3", "values": [{"measurement": "Kd", "setting": "[1]", "value": 1.54, "unit": "nM"}, {"measurement": "IC50", "setting": "[2]", "value": 2.3, "unit": "nM"}, {"measurement": "Kd", "setting": "[3]", "value": 1.36, "unit": "nM"}, {"measurement": "koff", "setting": "[3]", "value": 0.000627, "unit": "s⁻¹"}, {"measurement": "kon", "setting": "[3]", "value": 460000, "unit": "M⁻¹ s⁻¹"}]}
{"binder": "B4", "values": [{"measurement": "Kd", "setting": "[1]", "value": 3.37, "unit": "nM"}, {"measurement": "IC50", "setting": "[2]", "value": 1.7, "unit": "nM"}, {"measurement": "Kd", "setting": "[3]", "value": 3.1, "unit": "nM"}, {"measurement": "koff", "setting": "[3]", "value": 0.000807, "unit": "s⁻¹"}, {"measurement": "kon", "setting": "[3]", "value": 261000, "unit": "M⁻¹ s⁻¹"}]}
{"binder": "B5", "values": [{"measurement": "Kd", "setting": "[1]", "value": 0.32, "unit": "nM"}, {"measurement": "IC50", "setting": "[2]", "value": 1.1, "unit": "nM"}, {"measurement": "Kd", "setting": "[3]", "value": 0.0412, "unit": "nM"}, {"measurement": "koff", "setting": "[3]", "value": "6.78e-05", "unit": "s⁻¹"}, {"measurement": "kon", "setting": "[3]", "value": "1.65e+06", "unit": "M⁻¹ s⁻¹"}]}
